Experimental findings from publication PMC12040169 (PLOS Biology, 2025) are described below.

The other results are listed elsewhere or left out.

The assay has as its system T1, C. trachomatis L2/434/Bu expressing GFP (CTL2-GFP).
T1 construct: L2/434/Bu GFP intracellular growth in HeLa cells
Set-up: species or system HeLa; C. trachomatis total inclusion area by high-content imaging, normalised to DMSO. To be noted: total inclusion area; 28.5 h, 10 µM; inhibitor. The essentials: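 Bulk GFP and resorufin signals were read first. Wells were then fixed, stained with Hoechst and imaged to detect GFP inclusions and host nuclei. MICs followed the previously described calculation.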
On to `COCCNC(=O)C1CCCN(c2nc3c(-c4ccccc4)csc3c(=O)[nH]2)C1` (stereo not drawn) [CBK215497], for which the “% of control remaining” value came out at 109.416. Consider `COC(=O)[C@@H](C)NC(=O)[C@@H]1CN(C(=O)c2cccc(F)c2)CCN1S(C)(=O)=O` [CBK289625], for which the “% of control remaining” value is 96.0213. Take `CCCCC(CC)CN1CNC(=S)NC1` (stereo not drawn) [CBK265404]: the “% of control remaining” value is on record as 110.444. As for `COC(=O)C1(Cc2cc(-c3cccc(F)c3)no2)CCOCC1` [CBK285330], the “% of control remaining” value is on record as 96.5417.

Regarding `c1ccc(Nc2nc(-c3cccs3)cn3ccnc23)cc1` [CBK066513], the “% of control remaining” value is on record as 75.8516. For the compound `CC1CCCN(C(=S)NC2CC3CCC2C3)C1` (stereo not drawn) [CBK085999], the “% of control remaining” value is recorded as 104.37.

For `CCCn1c(SCC(=O)NC2CCN(CC)CC2)nc2cc(Cl)ccc21` [CBK305027], the “% of control remaining” value is listed as 44.5417. Consider `COc1ccc(NC(=O)Cc2csc(NC(=O)c3ccco3)n2)c(OC)c1` [CBK287649], for which the “% of control remaining” value stood at 83.9115.

`Cc1oc(S(=O)(=O)N(C)C)cc1C(=O)O` [CBK113681]: the “% of control remaining” value came out at 58.7532. For `CCC(=O)N1CCC[C@@H]1Cn1nc(-c2cccs2)ccc1=O` [CBK282304] the value was 100.614; for `Nc1cccc(-c2cc(Nc3ccc(Cl)cc3)ncn2)c1` [CBK090886], 52.4147; for `CCOc1ccccc1CNc1ccc(C2c3ccsc3CCN2C(C)=O)cc1` (stereo not drawn) [CBK286459], 101.924.

In the case of `CCN(Cc1ccco1)C(=O)Cn1c(=O)n(C)c2ncccc21` [CBK282390], the “% of control remaining” value is on record as 95.1821.

As for `COCCc1nc(-c2csc(CN(C)C)n2)n(Cc2ccccc2C)n1` [CBK306735], the “% of control remaining” value is listed as 66.4238. As to `NS(=O)(=O)c1ccc(NC(=O)CN2CCN(c3cccc(C(F)(F)F)c3)CC2)cc1` [CBK266180], the “% of control remaining” value amounted to 139.816. In the case of `[O-][S+](CC(O)COc1ccc(Cl)cc1)c1ccccn1` (stereo not drawn) [CBK261750], the “% of control remaining” value was 103.418.

With `CCCOCCCn1ccc2nc(OC)c(C#N)cc2c1=O` [CBK307162], the “% of control remaining” value is reported as 94.6893. On to `COc1ccc(CCCC(=O)Nc2ccc(N3CCNCC3)nc2)cc1OC` [CBK028272T], for which the “% of control remaining” value came to 111.464.

`COc1ccnc(NC(c2cnn(C)c2)[C@H]2C[C@@H](O)C2)n1` (stereo partly drawn) [CBK306617]: the “% of control remaining” value is on record as 56.7585. As to `CSc1ccccc1NC(=O)CN(c1ccc(F)cc1)S(=O)(=O)c1ccc2c(c1)OCCO2` [CBK266836], the “% of control remaining” value stood at 144.624. As for `CC(=O)N1C[C@H]2CCCN(S(=O)(=O)c3ccc(F)cc3)[C@H]2C1` [CBK285283], the “% of control remaining” value came out at 114.671. As for `O=c1[nH]nc(SCCCOc2ccc(Cl)cc2)n1C1CC1` [CBK295597], the “% of control remaining” value came out at 77.8515.

Take `CC(C)(C)c1ccc(/C=N/NC(=O)CCSc2ccc(Cl)cc2)cc1` [CBK263696]: the “% of control remaining” value came to 104.281. Take `O=C(NC1CCN(Cc2c(F)cccc2Cl)CC1)c1cccs1` [CBK057035]: the “% of control remaining” value stood at 68.52.

With `N#Cc1ccc(C(=O)N2CCN3C(=O)[C@H](Cc4ccc(F)cc4)NC(=O)[C@H]3C2)cc1` [CBK289602], the “% of control remaining” value is 102.632. As for `COc1ccc(C(=O)N2Cc3nc[nH]c3C[C@H]2c2nc(-c3ccc(OC)cc3)no2)cc1` [CBK288966], the “% of control remaining” value worked out at 85.055.

On to `O=C(N1CCn2cnnc2C1)C1(c2ccccc2)CCCC1` [CBK283926], for which the “% of control remaining” value came to 81.3419. As for `Cc1ccccc1-c1nnc(-c2ccc(C(=O)N=c3sccn3C)cc2)o1` [CBK298283], the “% of control remaining” value is 70.1117.

Consider `O=C(NCc1ccccc1)c1ccc2[nH]c(=O)c(-c3ccccc3)c(O)c2c1` [CBK160318], for which the “% of control remaining” value was 68.2553. For `CC(=O)Nc1ccc(OCC(O)Cn2nc(-c3ccco3)oc2=O)cc1` (stereo not drawn) [CBK305615] the value was 67.9684; for `CC(C)[C@H](CO)Nc1cncc(-c2ccccc2CO)n1` [CBK065326], 83.2839. For the compound `c1ccc(CN2CCN(Cc3ccccc3)C2c2ccco2)cc1` [CBK260888], the “% of control remaining” value was 78.824. With `O=C(O)c1ccc(NS(=O)(=O)c2ccc(Br)cc2)cc1` [CBK034058], the “% of control remaining” value is 103.099. To `O=C(c1ccc(-c2nccnc2NCCc2c[nH]c3ccccc23)cc1)N1CCOCC1` [CBK036891] belongs 110.384; to `Cc1cnn(C2CCCN(C(=O)Cc3cccs3)C2)c1` (stereo not drawn) [CBK304832], 37.7617; to `O=C(CN1C(=O)S/C(=C\C=C\c2ccccc2)C1=O)Nc1cccc2c1C(=O)c1ccccc1C2=O` [CBK263870], 106.073. On to `N#Cc1ccc(C(=O)Nc2cncc(OC3CCNCC3)n2)cc1` [CBK036371T], for which the “% of control remaining” value was 98.2789. For `Cc1ccc(NC(=O)c2cncnc2)c(C)n1` [CBK200380], the “% of control remaining” value turned out to be 96.5434. Consider `O=C1c2cccc3cccc(c23)C(=O)N1CCN1CCN(CC(O)COc2ccccc2)CC1` (stereo not drawn) [CBK266255], for which the “% of control remaining” value worked out at 105.278. With `O=C(/C=C\c1ccccc1)CC1(O)C(=O)N(Cc2cccc3ccccc23)c2ccccc21` (stereo not drawn) [CBK264761], the “% of control remaining” value stood at 99.5788.

`COc1ccc(OC)c(C2C(C(=O)c3ccccc3)=C(O)C(=O)N2CCN2CCOCC2)c1` (stereo not drawn) [CBK264748]: the “% of control remaining” value is on record as 109.405. For `COc1cccc(-c2cncc(C3CN(Cc4cccc5ncccc45)CCO3)n2)c1` (stereo not drawn) [CBK285973] the value was 87.2783; for `CC(=O)Nc1ccc(S(=O)(=O)Nc2cccc(C(=O)O)c2)cc1` [CBK050407], 81.5485. As for `COc1ccc(C(=O)N(C)C)cc1OC` [CBK015550], the “% of control remaining” value was 61.3013.

For `COc1ccccc1C(CN)C1CCCCC1` (stereo not drawn) [CBK009878], the “% of control remaining” value is recorded as 21.3417.

In the case of `CN(C)C(=O)CN1CC[C@@H](c2ccccc2)[C@H](O)C1` [CBK283979], the “% of control remaining” value is 95.2438. For the compound `Cn1cc([C@@H]2CN(Cc3ccc(F)c(F)c3)C[C@H]2N)c2ccncc21` [CBK285179], the “% of control remaining” value was 99.2731. Regarding `S=c1[nH]cnc2scc(-c3ccc(Cl)cc3)c12` [CBK094069], the “% of control remaining” value stood at 70.6563. As to `O=C(COc1ccc(F)cc1)N1CCCC1c1cccc(Cc2ccc(F)cc2)n1` (stereo not drawn) [CBK286235], the “% of control remaining” value was 138.485. In the case of `CCN1CCN(C(=O)CN(c2ccccc2)S(=O)(=O)N(C)C)CC1` [CBK268222], the “% of control remaining” value was 88.3375.

Regarding `Cc1[nH]nc(O)c1Cc1ccccc1F` [CBK105306], the “% of control remaining” value stood at 54.6223.
